# Test results published in PubChem BioAssay AID624202 (National Center for Advancing Translational Sciences (NCATS), 2012).
# The campaign covered roughly 380,000 compounds. About 4,000 (1.1%) were called active. Inconclusive means that the source gave no clear call. Such entries were picked first, then a sample of the others. The call rests on the fitted dose curve; in most records, active means well fitted activation curve with a large enough effect; inconclusive means small, poorly fitted or top-dose-only effect; inactive means no such curve, though single readings can be large or run the other way. Where the call is inconclusive, the potency comes from a doubtful curve fit.
# Assay: qHTS Assay to Identify Small Molecule Activators of BRCA1 Expression; further: nearly all actives have a fitted effect of over 80% in size
# Conditions: MCF7-BRCA1-FFLuc reporter, luminescence, 48 h; activation: at 46.1 µM (top of the series), scaled: vehicle 0%, 10 µM genistein 100% unless noted
# How it was run: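 Quantitative HTS in MCF7 cells stably reporting BRCA1 expression via firefly luciferase. Compound treatment lasts 48 h at 37 °C in phenol-red free MEM. Activation is expressed relative to genistein at 10 microM and DMSO.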
# Potency means the concentration at half of the fitted maximal effect; tags describe the fitted curve by direction and shape.
SMILES,Potency,activation
O=C(CCc1nc(-c2ccccc2)no1)N1CCCC1,"inconclusive: 20 µM [activator, partial curve, poor fit]",–
Cc1ccc(C(=O)Nc2ncc([N+](=O)[O-])s2)cc1,–,inconclusive: -96.4% [activator]
CCn1c(C)cc(C(=O)CSc2nnnn2C2CCCC2)c1C,"inconclusive: 1.26 µM [activator, full curve, poor fit]",–
N#Cc1c(N2CCOCC2)nsc1-c1ccc(C(F)(F)F)cc1,active: 5.01 µM,–
Cc1nc(SCc2ccc(OCCC(C)C)cc2)n[nH]1,"inconclusive: 7.08 µM [activator, full curve, poor fit]",–
COC(=O)c1c(-c2ccc(S(C)(=O)=O)cc2)sc2cc(OC)ccc12,active: 6.31 µM,–
C=CCn1c(CNc2ccccc2)nnc1SCC(=O)N/N=C/c1ccc(O)cc1O,–,inactive: -63.9%
Cc1ccc(-c2nnc(SCC(=O)N3CCCC3)o2)cc1,"inconclusive: 3.98 µM [activator, full curve, poor fit]",–
O=c1c2c(nc3cc(-c4cccc(F)c4)[nH]n13)CCC2,"inconclusive: 1.26 µM [activator, partial curve, poor fit]",–
Cc1ccn2c(Cc3ccccc3)c(-c3ccccc3)nc2c1,active: 12.6 µM,–
O=C(Nc1ccccc1)c1ccc(NC(=O)c2cccs2)cc1,active: 7.94 µM,–
CC(=O)OCc1cnc(C)c2oc(=O)c(C(=O)Nc3cccc(F)c3)cc12,–,inactive: 3.3%
Cc1ccc(CC(=O)Nc2nc3ccccc3s2)cc1,"inconclusive: 11.2 µM [activator, partial curve, poor fit]",–
Clc1cccc(/C=N/N2CCN(Cc3ccccc3)CC2)c1,"inconclusive: 11.2 µM [activator, partial curve, poor fit]",–
COc1cccc(OC)c1C(=O)NC(=S)Nc1cc(-c2nc3ccccc3[nH]2)ccc1Cl,–,inactive: 25.3%
C/C(=N\O)c1ccc(N2C(=O)C3CC=C(Cl)CC3C2=O)cc1 (stereo not drawn),"inconclusive: 7.08 µM [activator, partial curve, poor fit]",–
COC(=O)c1ccc(COC(=O)c2ccc(SC)cc2OC)cc1,active: 8.91 µM,–
Cc1c(/C=C/C(=O)c2ccc(O)cc2)cnn1C,"inconclusive: 31.6 µM [activator, single point]",–
O=C(NCCn1cc(SCc2ccc(F)cc2)c2ccccc21)c1c(F)cccc1F,inactive,–
Cc1cc(C(=O)NCCc2ccc(Cl)cc2)c(C)o1,active: 8.91 µM,–
Cc1ccc(Nc2nc(N)nc(CSc3ncccn3)n2)cc1,active: 2.24 µM,–
Nc1nc(N)nc(-c2ccc(Cl)c(Cl)c2)n1,"inconclusive: 5.01 µM [activator, partial curve, poor fit]",–
Cc1ccc(-c2nn3c(C)nnc3c3ccccc23)cc1S(=O)(=O)N1CCN(CCO)CC1,–,inactive: -71.1%
Fc1ccc2c(Cl)c(-c3nnc(-c4cccs4)o3)sc2c1,"inconclusive: 1.78 µM [activator, full curve, poor fit]",–
Cc1ccnc(NC(=O)c2ccc(Cl)s2)c1,"inconclusive: 2.51 µM [activator, partial curve, poor fit]",–

SMILES,Potency,activation
O=C(COc1ccc(Cl)cc1)Nc1ncc([N+](=O)[O-])s1,–,inconclusive: -42% [activator]
Cc1ccc(C(=O)c2cc3ccccc3o2)cc1,"inconclusive: 7.08 µM [activator, partial curve, poor fit]",–
Oc1ccc(-c2csc(Nc3ncccn3)n2)cc1O,"inconclusive: 3.16 µM [activator, full curve, poor fit]",–
O=C(NC(=S)Nc1ccc(Cl)cn1)c1cccs1,"inconclusive: 20 µM [activator, single point]",–
COc1cccc(C(=O)Nc2ccc(C3CC3(Cl)Cl)cc2)c1 (stereo not drawn),"inconclusive: 1 µM [activator, full curve, poor fit]",–
COc1cccc(C(=O)Nc2cccc(C(C)=O)c2)c1,"inconclusive: 15.8 µM [activator, partial curve, poor fit]",–
C/C=C/c1ccc(OCC(=O)OCc2csc(Nc3ccc(C)cc3)n2)c(OC)c1,active: 11.2 µM,–
C#Cc1cccc(NC(=O)CSc2nnc(-c3ccc(C(F)(F)F)cn3)o2)c1,"inconclusive: 11.2 µM [activator, partial curve, poor fit]",–
Nc1ccc(-c2nc3ccc([N+](=O)[O-])cc3[nH]2)cc1,active: 2 µM,–
O=c1c2ccccc2nc(SCc2ccccc2)n1Cc1ccco1,–,inactive: -33.4%
N#Cc1ccc(COn2nnc3ccccc32)cc1,"inconclusive: 35.5 µM [activator, single point]",–
Cc1nc(-c2ccc(C(=O)Nc3cc(S(N)(=O)=O)ccc3C)cc2)cs1,"inconclusive: 35.5 µM [activator, single point]",–
O=C(O)c1ccccc1NN=Cc1ccccc1,"inconclusive: 1.26 µM [activator, full curve, poor fit]",–
O=C(Nc1ccc2c(c1)CCC2)Nc1ccc2c(c1)OCO2,"inconclusive: 1.78 µM [activator, full curve, poor fit]",–
COc1ccccc1CNC(=O)CN1C(=O)c2cccc(N)c2C1=O,"inconclusive: 15.8 µM [activator, single point]",–
O=C(c1cccs1)N1CCn2c1nc1ccccc12,active: 2.82 µM,–
Brc1ccc2nc(-c3ccccc3)c(Cc3ccsc3)n2c1,"inconclusive: 12.6 µM [activator, partial curve, poor fit]",–
COc1ccc(/C=C2\OC(=O)c3c(OC)cccc32)cc1OC,active: 10 µM,–
O=C(CSCc1ccccc1)N1CCc2ccccc21,"inconclusive: 1.12 µM [activator, full curve, poor fit]",–
CC(C)(C)c1ccc(OCc2ccc(C(=O)NCc3cccnc3)o2)cc1,"inconclusive: 2.51 µM [activator, full curve, poor fit]",–
CS(=O)(=O)Nc1ccc(C(=O)NCCc2ccccc2)cc1,"inconclusive: 14.1 µM [activator, partial curve, poor fit]",–
O=C(OCCc1ccccn1)c1cccc([N+](=O)[O-])c1,–,inactive: 73.7%
Cn1c(-c2ncc(F)cc2F)cc2onc(-c3c(F)cccc3Cl)c2c1=O,"inconclusive: 2.24 µM [activator, partial curve, poor fit]",–
N#Cc1nc(Nc2cccc(Cl)c2)c2ncn(C3CCCC3)c2n1,"inconclusive: 3.16 µM [activator, partial curve, poor fit]",–
CC(C)(C)C(=O)Nc1ccc(-c2cn3cccnc3n2)cc1,active: 2.82 µM,–

SMILES,Potency,activation
Nc1ccc2c(c1)C(=NO)c1ccccc1-2,"inconclusive: 6.31 µM [activator, full curve, poor fit]",–
COc1cc2sc3ccc(-c4ccc5[nH]ccc5c4)cc3c(=O)c2cc1OC,"inconclusive: 2.51 µM [activator, full curve, poor fit]",–
Nc1nc(-c2ccc3c(c2)CCO3)cs1,"inconclusive: 14.1 µM [activator, partial curve, poor fit]",–
Nc1c(C(=O)Nc2ccc3c(c2)OCCO3)nnn1Cc1cccc(Cl)c1,active: 3.16 µM,–
CC(=O)Oc1ccc(-c2cc3ccccc3oc2=O)cc1,active: 12.6 µM,–
O=C(Nc1nnc(SCc2ccccc2)s1)c1ccco1,"inconclusive: 15.8 µM [activator, single point]",–
Cc1ccsc1/C=N/N1CCN(Cc2ccccc2)CC1,"inconclusive: 11.2 µM [activator, partial curve, poor fit]",–
CC(C)(C)NC(=O)CSC(=Nc1ccccc1F)NC#N,"inconclusive: 15.8 µM [activator, single point]",–
CCCOc1ccc(-c2nnn(CC(=O)N3CCCC(C)C3)n2)cc1 (stereo not drawn),–,inactive: 45.8%
Cc1[nH]c2ccccc2c1/C=N/Nc1nc(Nc2ccccc2)nc(N2CCOCC2)n1,–,inactive: -33.7%
O=C1C(Cl)=C(Nc2ccccc2)C(=O)c2ccccc21,–,inactive: -87.7%
COc1ccc(N=C2CCS(=O)(=O)c3sccc32)cc1,"inconclusive: 11.2 µM [activator, partial curve, poor fit]",–
CCOC(=O)c1ccc(NC(=S)N2CCSC2c2c(F)cc(F)cc2F)cc1 (stereo not drawn),–,inactive: -41%
COc1ccc(C(=O)c2cnc(/N=C/N(C)C)s2)cc1,"inconclusive: 12.6 µM [activator, partial curve, poor fit]",–
C/C(N)=C(/C#N)C(=O)CSc1nn(-c2ccc(Cl)cc2)c(=S)s1,"inconclusive: 28.2 µM [activator, partial curve, poor fit]",–
CC(=O)NC(CC(=O)O)C(=O)O (stereo not drawn),"inconclusive: 0.501 µM [activator, full curve, poor fit]",–
COC(=O)c1ccsc1NC(=O)CSc1nnnn1Cc1ccccc1,–,inactive: -78.2%
Cc1ccc(C(=O)Nc2ccc3c(c2)CCC3)cc1,–,inconclusive: -24.2% [activator]
CCN(CC)c1nc(N(CC)CC)[nH]c(=O)n1,–,inactive: -2.25%
Cc1nn(-c2ccccc2)c(N)c1Sc1cccc([N+](=O)[O-])c1,"inconclusive: 22.4 µM [activator, single point]",–
COc1ccc(-c2ccc3ccccc3n2)cc1,"inconclusive: 0.708 µM [activator, full curve, poor fit]",–
Cc1ccc(C(=O)NCCc2c[nH]c3ccccc23)c(C)c1,"inconclusive: 1.12 µM [activator, full curve, poor fit]",–
NS(=O)(=O)c1ccc(NC(=O)c2cnn3c2NC(=C2CC2)C=C3C(F)F)cc1,–,inactive: 2.04%
